{"source": "PubChem BioAssay AID1508642", "about": "(National Center for Advancing Translational Sciences (NCATS), 2021)", "note": "Out of some 43,000 compounds screened, about 200 (0.47%) were called active. Another 12% or so got no clear call; they are omitted. Calls come from the whole dose curve; as a rule, active = well fitted cell-killing curve with a large enough effect; inconclusive = small, poorly fitted or top-dose-only effect, or effect the other way; inactive = flat fitted curve, though single readings scatter. Some of the results follow. % is set by controls: 0 for no effect and ±100 for the full control effect.", "data": [{"experiment": "Cell viability qHTS assay in S16 Pmp22-F2sN cells; note: nearly all actives have a fitted effect of over 65% in size", "conditions": "S16 Pmp22-F2sN Schwann cells viability, CellTiter-Glo, 24 h; series mostly up to 57.5 µM; activity change, negative = cytotoxicity: at the top concentration", "procedure,_shortened": "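Used to flag compounds lowering reporter output through toxicity, this quantitative HTS measures ATP-based CellTiter-Glo luminescence in S16 Pmp22-F2sN Schwann cells after 24 h compound exposure at 37C.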", "values": [{"molecule": "CCCNC(=O)c1cnn2c(C(F)F)cc(-c3ccccc3)nc12", "activity change, negative = cytotoxicity": "inactive: 0.15%"}, {"molecule": "COc1ccc(CCNc2oc(COc3cccc(C)c3)nc2C#N)cc1OC", "activity change, negative = cytotoxicity": "inactive: -13.5%"}, {"molecule": "CC1(C)CC(=O)c2cc(-c3nc(-c4ccc(Cl)cc4)cs3)c(=O)[nH]c2C1", "activity change, negative = cytotoxicity": "inactive: 0.874%"}, {"molecule": "CCN1CCc2c(sc(-n3cccc3)c2C(C)NC(=O)Nc2cc(Cl)c(OC)cc2OC)C1", "note": "(configuration not stated)", "activity change, negative = cytotoxicity": "inactive: 22.4%"}, {"molecule": "Cc1nc2c(-c3ccccc3)c(C)nn2c(C)c1CCC(=O)NCCc1ccccc1", "activity change, negative = cytotoxicity": "inactive: 13.9%"}, {"molecule": "CC(C)c1ccc(NC(=O)N2CCN(c3ccc(Cl)c(Cl)c3)CC2)cc1", "activity change, negative = cytotoxicity": "inactive: -15.7%"}, {"molecule": "O=C(COc1cccc(Cl)c1)N1CCC(c2nc3ccccc3o2)CC1", "activity change, negative = cytotoxicity": "inactive: -5.25%"}, {"molecule": "CCOc1ccc(NC(=O)CSc2nc3c([nH]c4ccccc43)c(=O)n2-c2cc(C)cc(C)c2)cc1", "activity change, negative = cytotoxicity": "inactive: 3.09%"}, {"molecule": "Cc1cccc(N2CCN(C(=O)c3cnc4c(C)cccn4c3=O)CC2C)c1", "note": "(configuration not stated)", "activity change, negative = cytotoxicity": "inactive: -0.338%"}, {"molecule": "COc1ccc(NC(=O)CSc2nc3c(oc4ccccc43)c(=O)n2-c2ccccc2)cc1OC", "activity change, negative = cytotoxicity": "inactive: 3.66%"}, {"molecule": "CCOC(=O)c1c(C)oc2c1cc(NS(=O)(=O)c1ccc(C)cc1)c1ccccc12", "activity change, negative = cytotoxicity": "inactive: 26.1%"}, {"molecule": "Cc1ccc(N2CCN(C(=O)c3c(C)oc4ncnc(N5CCCCC5)c34)CC2)c(C)c1", "activity change, negative = cytotoxicity": "inactive: -6.51%"}, {"molecule": "O=C(NC1CC(=O)N(c2ccc(Cl)cc2)C1)C1CCCC1", "note": "(configuration not stated)", "activity change, negative = cytotoxicity": "inactive: 5.69%"}, {"molecule": "COc1ccc(-c2cc(C)no2)cc1S(=O)(=O)N1CCN(c2ccccc2F)CC1", "activity change, negative = cytotoxicity": "inactive: -16.6%"}, {"molecule": "CC(=O)N1c2ccccc2CC1C(=O)NCc1cccc(Cl)c1", "note": "(configuration not stated)", "activity change, negative = cytotoxicity": "inactive: -3.06%"}, {"molecule": "CC1CCN(c2nc3c(S(=O)(=O)c4ccc(Cl)cc4)nnn3c3ccsc23)CC1", "activity change, negative = cytotoxicity": "inactive: -5.74%"}, {"molecule": "COc1ccc(CCNc2nc3c(-c4cccc(F)c4)nnn3c3ccccc23)cc1OC", "activity change, negative = cytotoxicity": "inactive: -1.72%"}, {"molecule": "Cc1cccc(NC(=O)CSc2nc(-c3ccccc3Cl)nc3c2Cc2c(CO)cnc(C)c2O3)c1C", "activity change, negative = cytotoxicity": "inactive: -5.1%"}, {"molecule": "COc1cc2c(cc1OC)n(Cc1ccc([N+](=O)[O-])cc1)c(=O)n1nc(-c3ccccc3)nc21", "activity change, negative = cytotoxicity": "inactive: 3.33%"}, {"molecule": "COc1cc2c(cc1OC)C(COc1ccc3c(C)cc(=O)oc3c1)N(C(=O)c1ccccc1F)CC2", "note": "(configuration not stated)", "activity change, negative = cytotoxicity": "inactive: -7.93%"}, {"molecule": "CCc1ccccc1NC(=O)c1ccc(CN2C(=O)CCn3nc(C)cc32)cc1", "activity change, negative = cytotoxicity": "inactive: 3.44%"}, {"molecule": "COCCNC(=O)C1CCN(c2nc3ccccc3nc2C(F)(F)F)CC1", "activity change, negative = cytotoxicity": "inactive: 8.67%"}, {"molecule": "Cc1ccccc1NC(=O)CSc1cn(CC(=O)N(C(C)C)C(C)C)c2ccccc12", "activity change, negative = cytotoxicity": "inactive: -6.19%"}, {"molecule": "Cc1ccccc1OCC(=O)Nc1ccc2nc(SCc3ccccc3)sc2c1", "activity change, negative = cytotoxicity": "inactive: 17.4%"}, {"molecule": "Cc1ccc(OCC(=O)Nc2nc(-c3ccc(Br)cc3)ns2)cc1C", "activity change, negative = cytotoxicity": "inactive: -4.03%"}, {"molecule": "CCc1ccc(NS(=O)(=O)c2c(C)nc3sc(CC)nn3c2=O)cc1", "activity change, negative = cytotoxicity": "inactive: -17.1%"}, {"molecule": "COc1ccc(CCNC(=O)C2CCN(c3nc4ccccc4nc3C(F)(F)F)CC2)c(OC)c1", "activity change, negative = cytotoxicity": "inactive: -2.55%"}]}]}
